Where two headings read alike, the source gives them in different places.
Experiments:
Assay in all cases: cell-based or functional assay
[1] = target: T1, hIL-18 receptor (hIL-18Rα and hIL-18Rβ) on NFκB-luc/hIL-18RαRβ HEK293 reporter cells (human, UniProt Q13478 19-541; O95256 20-599)
T1 sequence (looked up) 1: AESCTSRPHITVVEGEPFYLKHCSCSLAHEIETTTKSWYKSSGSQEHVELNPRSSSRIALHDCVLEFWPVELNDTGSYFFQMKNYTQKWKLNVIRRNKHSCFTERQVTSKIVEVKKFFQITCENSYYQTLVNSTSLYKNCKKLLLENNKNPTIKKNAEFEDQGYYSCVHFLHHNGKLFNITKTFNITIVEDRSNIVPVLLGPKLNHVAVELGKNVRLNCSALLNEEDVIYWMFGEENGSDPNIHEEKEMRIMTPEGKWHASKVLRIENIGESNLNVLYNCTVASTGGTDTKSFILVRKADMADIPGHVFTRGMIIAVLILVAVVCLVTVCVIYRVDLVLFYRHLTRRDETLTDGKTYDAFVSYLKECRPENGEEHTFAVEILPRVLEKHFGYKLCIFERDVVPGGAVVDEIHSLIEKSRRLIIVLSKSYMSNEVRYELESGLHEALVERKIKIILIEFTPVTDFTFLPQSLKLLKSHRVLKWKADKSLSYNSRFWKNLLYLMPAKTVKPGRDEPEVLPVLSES
T1 sequence (looked up) 2: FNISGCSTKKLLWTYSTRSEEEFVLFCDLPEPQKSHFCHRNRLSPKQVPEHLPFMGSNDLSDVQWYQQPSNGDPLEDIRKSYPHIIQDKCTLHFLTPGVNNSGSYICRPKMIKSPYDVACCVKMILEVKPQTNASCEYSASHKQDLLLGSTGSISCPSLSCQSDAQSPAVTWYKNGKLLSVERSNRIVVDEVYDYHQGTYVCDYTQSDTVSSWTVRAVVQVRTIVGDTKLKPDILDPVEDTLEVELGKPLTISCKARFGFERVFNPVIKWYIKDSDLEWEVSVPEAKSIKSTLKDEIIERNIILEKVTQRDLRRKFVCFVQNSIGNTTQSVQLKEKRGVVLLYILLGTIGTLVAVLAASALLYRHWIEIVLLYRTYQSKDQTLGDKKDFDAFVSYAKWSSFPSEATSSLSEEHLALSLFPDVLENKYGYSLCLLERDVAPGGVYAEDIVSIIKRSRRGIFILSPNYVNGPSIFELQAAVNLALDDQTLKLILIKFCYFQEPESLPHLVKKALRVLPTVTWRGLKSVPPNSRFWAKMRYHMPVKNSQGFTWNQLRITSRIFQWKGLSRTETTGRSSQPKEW

hIL-18BP-hFc [2] = target: T2, hIL-18BP-hFc (human, UniProt O95998 31-194, limits assumed)
T2 sequence (looked up): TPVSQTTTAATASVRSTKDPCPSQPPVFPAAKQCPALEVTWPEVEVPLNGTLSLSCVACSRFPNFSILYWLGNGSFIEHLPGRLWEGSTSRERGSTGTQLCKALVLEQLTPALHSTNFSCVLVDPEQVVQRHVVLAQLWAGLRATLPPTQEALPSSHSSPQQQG

[3] = target: T3, hIL-18 receptor (hIL-18Rα and hIL-18Rβ) (human, UniProt Q13478 19-541; O95256 20-599)
T3 sequence (looked up) 1: T1 sequence (looked up) 1
T3 sequence (looked up) 2: T1 sequence (looked up) 2

[4] = target: T3, hIL-18 receptor (hIL-18Rα and hIL-18Rβ); remark: listed apart in the source
hIL-18BP-hFc [5] = target: T2, hIL-18BP-hFc; remark: listed apart in the source

B1: M12-SSS-Fc_N297A (Fc fusion)
chain: YFPKLKSKLSVIRNLNDQVLFIDQGNRPLFEDMTDSDSRDNAPRTIFIISMYKGSGARGMAVTISVKSEKISTLSSENKIISFKEMNPPDTIKDTKSDIIFFQRSVPGHDNKMQFESSSYEGYFLACEKERDLFKLILKKEDELGDRSIMFTVQNED[letters of human IgG1 Fc with changes not shown]
fold decrease in activation of IL-18 receptor-mediated signaling (NFκB luciferase reporter cells) [1]: ~7 fold

B2: WT IL18-DB6-Fc_N297A (Fc fusion)
chain: YFGKLESKLSVIRNLNDQVLFIDQGNRPLFEDMTDSDIRDNAPRTIFIISMYKDSQPRGMAVTISVKSEKISTLSCENKIISFKEMNPPDNIKDTKSDIIFFQRSVPGHDNKMQFECSSYEGYFLACEKERDLFKLILKKEDELGDRSIMFTVQNED[letters of human IgG1 Fc with changes not shown]
EC50 (nM) + 1 µg/ml IL-18 BP-hFc, in vitro IL-18 Receptor Mediated Signaling Assay (hIL-18BP-hFc [2]): 3.13 nM | EC50 (nM), in vitro IL-18 Receptor Mediated Signaling Assay [3]: 0.011 nM

B3: M12-DB10-Fc_N297A (Fc fusion)
chain: YFPKLKSKLSVIRNLNDQVLFIDQGNRPLFEDMTDSDIRDNAPRTIFIISMYKGSGARGMAVTISVKLEKISTLSYENKIISFKEMNPPDTIKDTKSDIIFFQRSVPGHDNKMQFESSSYEGYFLACEKERDLFKLILKKEDELGDRSIMFTVQNED[letters of human IgG1 Fc with changes not shown]
EC50 (nM), in vitro IL-18 Receptor Mediated Signaling Assay [4]: 0.012 nM

B4: M12-DB6-Fc_N297A (Fc fusion)
chain: YFPKLKSKLSVIRNLNDQVLFIDQGNRPLFEDMTDSDIRDNAPRTIFIISMYKGSGARGMAVTISVKSEKISTLSCENKIISFKEMNPPDTIKDTKSDIIFFQRSVPGHDNKMQFECSSYEGYFLACEKERDLFKLILKKEDELGDRSIMFTVQNED[letters of human IgG1 Fc with changes not shown]
EC50 (nM) + 1 µg/ml hIL-18BP-hFc, in vitro IL-18 Receptor Mediated Signaling Assay (hIL-18BP-hFc [5]): 0.01 nM | EC50 (nM), in vitro IL-18 Receptor Mediated Signaling Assay [4]: 0.012 nM

B5: M12-DB9-Fc_N297A (Fc fusion)
chain: YFPKLKSKLSVIRNLNDQVLFIDQGNRPLFEDMTDSDIRDNAPRTIFIISMYKGSGARGMAVTISVKIEKISTLSVENKIISFKEMNPPDTIKDTKSDIIFFQRSVPGHDNKMQFESSSYEGYFLAIEKERDLFKLILKKEDELGDRSIMFTVQNED[letters of human IgG1 Fc with changes not shown]
EC50 (nM) + 1 µg/ml hIL-18BP-hFc, in vitro IL-18 Receptor Mediated Signaling Assay (hIL-18BP-hFc [5]): 0.025 nM | EC50 (nM), in vitro IL-18 Receptor Mediated Signaling Assay [4]: 0.017 nM

B6: M12-DB7-Fc_N297A (Fc fusion)
chain: YFPKLKSKLSVIRNLNDQVLFIDQGNRPLFEDMTDSDVRDNAPRTIFIISMYKGSGARGMAVTISVKIEKISTLSCENKIISFKEMNPPDTIKDTKSDIIFFQRSVPGHDNKMQFECSSYEGYFLAAEKERDLFKLILKKEDELGDRSIMFTVQNED[letters of human IgG1 Fc with changes not shown]
EC50 (nM) + 1 µg/ml hIL-18BP-hFc, in vitro IL-18 Receptor Mediated Signaling Assay (hIL-18BP-hFc [5]): 0.007 nM | EC50 (nM), in vitro IL-18 Receptor Mediated Signaling Assay [4]: ~0.007 nM

B7: MM5-SSS-Fc_N297A (Fc fusion)
chain: YFGKLGSKLSVIRNLNDQVLFIDQGNRPLFEDMTDSDSRDNAPRTIFIISMYKLSTERGMAVTISVKSEKISTLSSENKIISFKEMNPPDGIKDTKSDIIFFQSSVPGHDNKMQFESSSYEGYFLACEKERDLFKLILKKEDELGDRSIMFTVQNED[letters of human IgG1 Fc with changes not shown]
fold decrease in activation of IL-18 receptor-mediated signaling (NFκB luciferase reporter cells) [1]: ~220 fold

B8: MM5-DB6-Fc_N297A (Fc fusion)
chain: YFGKLGSKLSVIRNLNDQVLFIDQGNRPLFEDMTDSDIRDNAPRTIFIISMYKLSTERGMAVTISVKSEKISTLSCENKIISFKEMNPPDGIKDTKSDIIFFQSSVPGHDNKMQFECSSYEGYFLACEKERDLFKLILKKEDELGDRSIMFTVQNED[letters of human IgG1 Fc with changes not shown]
EC50 (nM) + 1 µg/ml IL-18 BP-hFc, in vitro IL-18 Receptor Mediated Signaling Assay (hIL-18BP-hFc [2]): 0.12 nM | EC50 (nM), in vitro IL-18 Receptor Mediated Signaling Assay [3]: 0.13 nM

B9: Fc_N297A-MM5-DB6 (Fc fusion)
chain: [letters of human IgG1 Fc with changes not shown]GGGGSGGGGSGSGGGYFGKLGSKLSVIRNLNDQVLFIDQGNRPLFEDMTDSDIRDNAPRTIFIISMYKLSTERGMAVTISVKSEKISTLSCENKIISFKEMNPPDGIKDTKSDIIFFQSSVPGHDNKMQFECSSYEGYFLACEKERDLFKLILKKEDELGDRSIMFTVQNED
EC50 (nM), in vitro IL-18 Receptor Mediated Signaling Assay [3]: 0.25 nM

B10: Fc_N297A-M12-DB6 (Fc fusion)
chain: [letters of human IgG1 Fc with changes not shown]GGGGSGGGGSGSGGGYFPKLKSKLSVIRNLNDQVLFIDQGNRPLFEDMTDSDIRDNAPRTIFIISMYKGSGARGMAVTISVKSEKISTLSCENKIISFKEMNPPDTIKDTKSDIIFFQRSVPGHDNKMQFECSSYEGYFLACEKERDLFKLILKKEDELGDRSIMFTVQNED
EC50 (nM), in vitro IL-18 Receptor Mediated Signaling Assay [3]: 0.06 nM

— patent publication US20260092093A1 (TJ BIOPHARMA SHANGHAI, published 2026)
